Laboratory results: PubChem BioAssay AID686978 (National Center for Advancing Translational Sciences (NCATS), 2013)
Out of some 420,000 compounds screened, about 64,000 (15%) were called active. This list was built around the results that the source calls inconclusive (neither active nor inactive); the mix of calls is not that of the screen. Calls come from the whole dose curve; as a rule, active = well fitted inhibition curve with a large enough effect; inconclusive = small, poorly fitted or top-dose-only effect; inactive = flat fitted curve, though single readings scatter. No potency is given beside an inconclusive call; the fits are too rough.

test: qHTS for Inhibitors of human tyrosyl-DNA phosphodiesterase 1 (TDP1): qHTS in cells in absence of CPT; conditions: DT40 Tdp1-/- hTDP1 cells, no CPT, ATP luminescence, 48 h; activity change, negative = growth inhibition: at 46.2 µM (top of the series) unless noted; note: nearly all actives have a fitted effect of over 55% in size
How it was run: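 Readout: luminescence from CellTiter-Glo after 30 min in the dark at RT. Cells: DT40 Tdp1-/- with stable hTDP1, 400/well. Exposure: compounds alone, ≥48 hr, 37 °C.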
% is set by controls: 0 for no effect and ±100 for the full control effect; potency is the fitted concentration of half-maximal effect; tags give direction and shape of the fitted curve.

Row | SMILES | activity change, negative = growth inhibition | Potency
1 | Cc1ccc(-c2noc(-c3ccccc3OCC(=O)Nc3ccccc3[N+](=O)[O-])n2)cc1 | inactive: 15% | –
2 | COc1ccccc1C(=O)NC(CCSC)C(=O)Nc1ccc(C)c(S(=O)(=O)N2CCOCC2)c1 (stereo unspecified) | – | inconclusive [inhibitor, single point]
3 | Cc1ccc(S(=O)(=O)Nc2c(C)n(C)n(-c3ccccc3)c2=O)cc1C(=O)NCc1ccccc1 | – | inconclusive [inhibitor, single point]
4 | Cc1ccccc1NC(=O)c1c(C)oc2ccc(O)c(CN(C)Cc3ccccc3)c12 | – | active: 6.51 µM
5 | O=C(c1c(F)c(F)c(F)c(F)c1F)N(Cc1ccccc1)Cc1ccccc1 | – | inconclusive [inhibitor, partial curve]
6 | N#Cc1c(Nc2ccccc2)sc(C(=O)c2ccccc2)c1N | – | inconclusive [inhibitor, partial curve, poor fit]
7 | CCCS(=O)(=O)NC(=O)C1(C)CCCN(C(=O)c2ccc(C#N)cc2)C1 (stereo unspecified) | inactive: -2.33% | –
8 | Cc1cccc(NC(=O)c2nc[nH]c2C(=O)N[C@@H](C)CO)c1 | inactive: -20.7% | –
9 | COc1ccc(F)cc1CN1CCN(CC(=O)N2CCc3ccccc32)CC1 | – | inconclusive [inhibitor, single point]
10 | CCCCCOc1ccc(C(=O)OC(C)C(=O)NCc2ccco2)cc1 (stereo unspecified) | – | inconclusive [inhibitor, partial curve]
11 | CCN1C(=O)C(Cc2nc3ccccc3c(=O)n2-c2cccc(C)c2)c2ccccc21 (stereo unspecified) | – | inconclusive [inhibitor, single point]
12 | O=C(N/N=C/c1cccs1)c1cc(-c2ccc(Cl)s2)[nH]n1 | – | inconclusive [inhibitor, single point]
13 | CCCC(=O)N1c2nc(-c3ccco3)nn2C2(CCCCC2)[C@@H]2CCCC[C@@H]21 | – | inconclusive [inhibitor, single point]
14 | CCCCCn1c(CCCNC(=O)c2ccccc2)nc2ccccc21 | – | active: 20.6 µM
15 | O=C(Nc1ncc(Cc2ccc(F)cc2)s1)c1ccc2c(c1)CC(c1ccccc1)OC2=O (stereo unspecified) | – | active: 23.1 µM
16 | Cc1ccc(S(=O)(=O)N(C)C)cc1NC(=O)C1CCC1 | inactive: 6.36% | –
17 | COc1ccc(C(=O)NC2CC(C)(C)Cc3occc32)cc1 (stereo unspecified) | inconclusive: -34.2% [inhibitor] | –
18 | Cc1ccsc1/C=N/n1c(=S)[nH]nc(C)c1=O | – | active: 13 µM
19 | CCNc1ncc2nc(C)c(=O)n(C3CC3)c2n1 | inactive: -0.205% | –
20 | O=C(COC(=O)C1CC1)NCc1ccccc1Cl | inactive: -4.67% | –
21 | O=C(O)c1ccc(NCc2cccs2)cc1 | inactive: 15.5% | –
